This is an account of results in paper PMC9860685.

Amino acid sequences for entries named in this document (tags omitted). A change or cut given only in a name is not applied to a line headed by its entry. Residues count along the entry.
UniProt P04792: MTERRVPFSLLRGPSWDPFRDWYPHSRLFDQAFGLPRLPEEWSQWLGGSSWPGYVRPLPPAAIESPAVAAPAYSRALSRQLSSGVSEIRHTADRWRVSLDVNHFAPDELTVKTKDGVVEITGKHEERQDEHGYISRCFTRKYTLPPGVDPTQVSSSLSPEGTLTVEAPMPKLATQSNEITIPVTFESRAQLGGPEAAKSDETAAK
UniProt Q9UBY9, residues 71-154: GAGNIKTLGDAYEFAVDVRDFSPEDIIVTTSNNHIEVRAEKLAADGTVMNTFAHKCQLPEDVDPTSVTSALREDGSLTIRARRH

The target in test [1] is T1, full-length HspB5 (αB-crystallin) (human) (UniProt P02511).
T1 sequence: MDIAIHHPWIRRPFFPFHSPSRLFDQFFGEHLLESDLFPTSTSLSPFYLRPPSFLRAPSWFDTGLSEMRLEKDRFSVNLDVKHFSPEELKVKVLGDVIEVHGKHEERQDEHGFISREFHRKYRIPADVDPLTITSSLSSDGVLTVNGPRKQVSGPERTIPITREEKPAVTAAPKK
As to the kind of experiment: SEC; full-length sHsp (~19–20 μM per monomer) mixed with ACD (38–110 μM per monomer) in buffer B, 30 min at 42 °C; Superdex 200 Increase column in 50 mM phosphate pH 7.4, 150 mM NaCl, 2 mM DTT; fractions analysed by SDS–PAGE; both purified.

Test [2] has as its target full-length HspB1 (human) (UniProt P04792). The description is as above.
In test [3] the target is T2, full-length HspB6 (human) (UniProt O14558).
T2 sequence: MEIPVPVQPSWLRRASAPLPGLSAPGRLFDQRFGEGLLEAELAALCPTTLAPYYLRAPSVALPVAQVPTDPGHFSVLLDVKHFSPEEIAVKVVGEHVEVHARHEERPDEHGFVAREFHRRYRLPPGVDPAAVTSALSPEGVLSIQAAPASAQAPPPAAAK
As to the kind of experiment: native gel or EMSA; clear native PAGE, 12.5% gel, 80 mM glycine–Tris pH 8.6; sHsp 5–6 μM per monomer mixed with ACD 20–24 μM per monomer, 30 min at 25 °C in buffer B; Western blot with anti-HspB6 for the complexes of HspB6; both purified.

For test [4], the target named is T3, full-length HspB8 (human) (UniProt Q9UJY1).
T3 sequence: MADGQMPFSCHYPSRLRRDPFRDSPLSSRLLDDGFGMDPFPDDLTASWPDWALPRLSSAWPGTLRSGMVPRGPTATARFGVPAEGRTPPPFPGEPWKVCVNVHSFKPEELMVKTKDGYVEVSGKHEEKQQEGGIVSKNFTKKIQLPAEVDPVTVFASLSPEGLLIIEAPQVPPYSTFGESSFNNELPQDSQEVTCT
The description is as above.

The target in test [5] is α-crystallin domain of HspB7 (B7ACD) (human) (UniProt Q9UBY9). Briefly: dynamic light scattering; 25 °C, 20 mM Tris–acetate pH 7.6, 10 mM NaCl, 0.1 mM EDTA, 0.1 mM PMSF; protein 3.0 mg/mL; particle diameter in the intensity mode; both purified.
The target is the same in test [6]. As to the kind of experiment: SEC; Superdex 75 10/300 GL, 50 mM phosphate pH 7.4, 150 mM NaCl, 2 mM DTT; 25 μL samples of 16–150 μg (25–600 μM per monomer); apparent dissociation constant, dimer to monomers, from a hyperbolic fit of elution volume against the concentration loaded; both purified.
Test [7] shares this target. Briefly: cross-linking; glutaraldehyde 0.008% or 0.024%, ACDs at 3 mg/mL in 25 mM HEPES pH 7.5, 30 min at 30 °C; Tricine–SDS–PAGE; both purified.
The target in test [8] is T1, full-length HspB5 (αB-crystallin) (human). Briefly: condition: full-length ~19–20 μM, ACD 38–110 μM per monomer; SEC; full-length sHsp (~19–20 μM per monomer) mixed with ACD (38–110 μM per monomer) in buffer B, 30 min at 42 °C; Superdex 200 Increase column in 50 mM phosphate pH 7.4, 150 mM NaCl, 2 mM DTT; fractions analysed by SDS–PAGE; both ….
Test [9] addresses 3D mutant of HspB1 (S15D, S78D, S82D) (human) (UniProt P04792). The test is described as above.
For test [10], the target named is full-length HspB1 (human) (UniProt P04792). The test is described as above.

Results are given in words; binding and its absence hold for the method and conditions named. Some results given as binding are weak or reduced against the parent protein; the word gives no strength.

For the substance “α-crystallin domain of HspB1 (B1ACD) (from UniProt P04792 84-170) (domain or fragment)”, the binding result in [1] and in [2] was “binds weakly” throughout.

For “α-crystallin domain of HspB7 (B7ACD) (from UniProt Q9UBY9 71-154) (domain or fragment)”, the binding result in [3] is on record as “no binding (tested: sHsp 5–6 μM, ACD 20–24 μM per monomer)”; in test [4] it was “no binding (tested: sHsp 5–6 μM, ACD 20–24 μM per monomer)”; in test [5] it was “no binding (tested: 3 mg/mL)”; in test [6], “no binding (tested: 25–600 μM per monomer)”; in test [7], “no binding (tested: 3 mg/mL)”; in [8], “no binding”. For the same substance, the binding entry in test [9] and in test [10] was “no binding” each time.
